ChEMBL document CHEMBL4888484, “Replenishing the malaria drug discovery pipeline: Screening and hit evaluation of the MMV Hit Generation Library 1 (HGL1) against asexual blood stage Plasmodium falciparum ,using a nano luciferase reporter read-out” (2022)
Among all 150,000 compounds or so, about 540 (0.36%) showed an effect of 50% or more. The list shows a part of the results.

test system: Plasmodium falciparum; assay: Primary screen in NF54 nanoGlo assay, in single point, at 2uM, 72h; a lower Z score goes with more inhibition; type: functional, Erythrocyte; conditions: timepoint 72 hour

Row | Structure (SMILES) | % Inhibition [%] | Z score
1 | O=C(N[C@H]1CCc2nnc(C3CC3)n2CC1)c1cc(C2CC2)[nH]n1 | -10 | 1.5
2 | CCOc1ncccc1CNC(=O)CCN1CCCCO1 | -6 | 0.77
3 | Cc1n[nH]c2nc(-c3ccccc3)cc(C(=O)NCCc3ccc(S(N)(=O)=O)cc3)c12 | 29 | -3.29
4 | O=C(CCc1ccccc1)N1CCC[C@H]1C1CCNCC1 | -18 | 2.83
5 | COc1ncccc1C(=O)N[C@H]1CCN(c2cnn(C)c2)C1 | -11 | 1.27
6 | Cc1nc(C)c(-c2ccc(C(=O)NCCOCCO)cc2)s1 | -5 | 0.67
7 | NC(=O)C1(NC(=O)c2ccccc2OCC2CC2)CCOCC1 | -3 | 0.35
8 | O=C(Cn1c(=O)c(Cl)cc2ccccc21)NC1CC1 | -13 | 2.48
9 | Cc1cccn2c(Cn3cc(-c4ccc(CO)o4)nn3)cnc12 | -14 | 1.93
10 | CC(=O)N1CCC[C@H](CNc2ccc(Cl)c(C)n2)C1 | 1 | -0.21
11 | O=C(N[C@H]1CCOC1)N1CC(c2nc3ccccc3[nH]2)C1 | 5 | -1
12 | O=C(C1=CCCCO1)N1CCn2c(nnc2C(F)(F)F)C1 | -20 | 2.07
13 | Cc1ccc(-c2csc([C@@H]3CCCO3)n2)s1 | -6 | 0.8
14 | CC1CCC(c2noc([C@H]3CCO[C@@H]3c3cncc(Br)c3)n2)CC1 (stereo not given in full) | 39 | -5.89
15 | COCCN1CCC(CN(Cc2ccc(Cl)s2)C[C@H]2CCCO2)CC1 | -7 | 0.76
16 | Nc1nc(-c2ccc(F)cc2)ncc1C(=O)NCc1ccccc1Cl | 31 | -3.5
17 | CC(C)=CCN1C(=O)N[C@@](CCCc2ccccc2)(C2CCNCC2)C1=O | 8 | -1.25
18 | O=S(=O)([C@H]1CCCOC1)N1CCC(Cc2ccccc2)CC1 | -4 | 0.53
19 | O=C(c1ccc(F)cc1)N1CCC2(CC1)C[C@@H](N1CCCCC1)CCO2 | -13 | 1.67
20 | CCCC1(C2CCN(C(=O)Cc3ccc4c(c3)OCO4)CC2)NC(=O)N(CCC2CCCN2C)C1=O (stereo not given) | -8 | 1.11
21 | CN1C[C@@H](C(=O)Nc2ccc3c(c2)COC3=O)CC1=O | -3 | 0.44
22 | Cc1ccc(C)c(Cn2cnc3nc4c(cc3c2=O)C[C@@H](C)CC4)c1 | -11 | 1.41

Row | Structure (SMILES) | % Inhibition [%] | Z score
23 | CC(C)(O)C(C)(C)NS(=O)(=O)c1c(Cl)cc(Br)cc1Cl | -1 | 0.08
24 | O=C(c1cccc(C(F)(F)F)c1)N1CCC(N2C(=O)COCC2=O)CC1 | 12 | -1.55
25 | CN1C(=O)CC[C@@H]1C(=O)Nc1cc2c(cn1)CCCC2 | 0 | -0.04
26 | CCNC(=O)N1CCCC[C@H]1c1noc(COc2ccc(C)cc2)n1 | -14 | 1.7
27 | CCn1c(CC2CCNCC2)nn(Cc2nc(-c3ccc(C)cc3)oc2C)c1=O | -16 | 1.52
28 | O=C(NC1CC=CCC1)NC1C2CCOC2C12CCCC2 (stereo not given) | -19 | 1.66
29 | O=C(Cc1ccsc1)N(CCn1ccc(C(F)(F)F)n1)C1CCCC1 | -15 | 3.07
30 | CC(C)n1c(=O)[nH]c2cc(C(=O)N3CCOC[C@@H]3C)ccc2c1=O | -7 | 0.96
31 | Cc1cccc(CNC(=O)c2cn3c(n2)COCC3)c1 | -10 | 1.68
32 | Cc1nc(-c2c[nH]nc2-c2ccc(OCc3ccc(Br)cc3)cc2O)cs1 | 1 | -0.12
33 | O=S1(=O)CC[C@H](Cn2cc(-c3cc(CN4CCCC4)cs3)nn2)C1 | -7 | 1.2
34 | CCn1ccc2ccc(CN3CCOC[C@@H]3CO)cc21 | 6 | -0.93
35 | COc1ccccc1C(=O)Nc1ccc2c(c1)CN(Cc1ccc(F)cc1)C(=O)[C@H](C)O2 | 0 | 0.05
36 | Cc1noc(C2CCN([C@@H](C(=O)O)c3cccc(Cl)c3)CC2)n1 | -1 | 0.21
37 | Cc1ccc(CN(C)C(=O)C2(Cc3ccc(F)cc3)CCOCC2)o1 | -11 | 1.52
38 | Cc1nc[nH]c1C(=O)N(CCc1ccccc1)C1CCN(C)CC1 | -3 | 0.43
39 | O=C(c1ccn(C(=O)Nc2ccccc2)n1)N1CCOCC1 | -10 | 1.34
40 | Cn1nccc1CCNS(=O)(=O)c1c[nH]c2cccc(F)c12 | 34 | -4.66
41 | CN1CCN(CC(=O)Nc2cc(F)ccc2F)CCC1=O | -8 | 1.64
42 | COc1ccccc1C1(CNC(=O)N[C@H]2CCO[C@@H]2c2nccn2C)CCC1 | 35 | -3.91
43 | COC1C(C)C(NC(=O)CCc2ccccc2C(=O)O)C1(C)C (stereo not given) | -7 | 0.86
44 | CN(C)C(=O)[C@@H]1CN(Cc2ccn(C)n2)CCN1Cc1ccn(C)n1 | 0 | -0.03

Row | Structure (SMILES) | % Inhibition [%] | Z score
45 | CC1CN(Cc2ccccc2)CCC1N(C)C(=O)Nc1cn[nH]c1 (stereo not given) | -12 | 1.37
46 | CC(C)[C@H](O)C1CCN(Cc2nc(-c3cccs3)no2)CC1 | -15 | 2.38
47 | COc1ccccc1C(=O)N1c2ncnn2C2(CCCCC2)[C@@H]2CCCC[C@@H]21 | -14 | 1.25
48 | Cc1ccc(C(=O)NC[C@@H](O)CO)n1C(F)F | -5 | 0.93
49 | CCn1ccc(C(=O)N2C[C@H]3CC[C@@H](C2)N(CC=C(C)C)C3=O)cc1=O | 6 | -1.14
50 | CCC[C@H](C)C(=O)NCCC(=O)N1CCCCCC1 | 3 | -0.37
51 | COc1ccc(C(OCC2OC(n3ccc(=O)[nH]c3=O)C(OC3CCCCO3)C2O)(c2ccccc2)c2ccc(OC)cc2)cc1 (stereo not given) | -21 | 2.68
52 | Cc1cnc(NC(=O)N[C@H]2CCS(=O)(=O)[C@H]2C)s1 | 2 | -0.29
53 | O=C(Nc1ccc(N2C(=O)CC3(CCCCCC3)C2=O)cc1)c1ccco1 | -4 | 0.43
54 | Cc1nnc(NCc2ccc3c(c2)OCCO3)c(C#N)c1C | -16 | 3.18
55 | CCCNc1ncc([C@H]2CC(=O)Nc3nn4c(C)cc(C)nc4c32)cn1 | -13 | 2.42
56 | CC(C)(C)C(=O)NCc1noc(C2CCCCC2)n1 | 1 | -0.19
57 | O=C(CCc1cscn1)NS(=O)(=O)c1cccnc1 | 2 | -0.19
58 | C[C@H](NC(=O)C1(O)CCCC1)c1ccn(C)n1 | -15 | 2.08
59 | COc1ccc(-n2cc(-c3nc(-c4ccccc4Cl)no3)c3ccccc3c2=O)cc1OC | 11 | -1.31
60 | CN(C)C(=O)c1ccc(=O)n(CC23CCC(CC2)C3)c1 | -11 | 1
61 | CC[C@@H](c1cccc(C)n1)n1cnc2ncccc2c1=O | -10 | 1.4
62 | COCC1CN(C(=O)NCCc2ccco2)CC(C)O1 (stereo not given) | 24 | -3.09
63 | Cc1ccc(-n2nc(C(=O)NCC3CCCO3)c(=O)n(C(C)c3ccccc3)c2=O)cc1F (stereo not given) | -8 | 0.82
64 | COc1ccsc1S(=O)(=O)NCCC(F)(F)F | -12 | 1.16
65 | CO[C@@H](C)c1nc(CN(C)C(=O)c2nn(C)c(C)c2Cl)cs1 | -1 | 0.19
66 | CC1(C)OC(=O)N(c2cccnc2)[C@@]1(C)O | -2 | 0.31

Row | Structure (SMILES) | % Inhibition [%] | Z score
67 | O=C(C1CCCCC1)N1CC[C@@H]2COC(=O)N(Cc3ccccc3)[C@@H]2C1 | -4 | 0.53
68 | Cc1nc(CCCN(C)C)n(-c2cccc3cccnc23)n1 | 9 | -1.3
69 | CCn1ccnc1[C@H](C)NC(=O)Cn1ncc2cc(C)cnc21 | -17 | 2.59
70 | COc1ccccc1CNC(=O)c1ccc(C)nc1C1CCN(Cc2cccnc2)CC1 | -6 | 0.66
71 | O=C(NC1CCCC1)[C@@H]1CCCn2c(-c3ccccc3)cnc21 | -3 | 0.5
72 | CCC[C@H](NC(=O)Cc1cccc(C)c1)C(=O)O | -1 | 0.06
73 | O=C(C1CCCN1C(=O)C1CCCC1)N1CCOC(C(F)F)C1 (stereo not given) | -11 | 1.3
74 | Cc1cc(C)n(C[C@H](C)Nc2nc(-c3cccnc3)nc3c2CCNC3)n1 | 7 | -0.92
75 | Cc1ccc(CN2CCN(Cc3nnc(C(C)C)o3)[C@H]3CS(=O)(=O)C[C@H]32)o1 | 2 | -0.34
76 | CCN(C(=O)c1cnn(C2CCC2)c1)c1cccnc1 | -10 | 1.82
77 | CN(C)c1nc(NCc2noc(C3CCCC3)n2)ncc1F | -9 | 1.14
78 | CC(=O)Nc1nc(-c2ccc(S(=O)(=O)N3CCN(c4ccccc4)CC3)cc2)cs1 | -6 | 0.93
79 | Cc1nn(C)c(C)c1S(=O)(=O)NC(C)(C)C(=O)N(C)C | -6 | 1.2
80 | O=C(C1CCC2CCCCC2C1)N1CC(O)(CO)C1 (stereo not given) | -15 | 2.31
81 | O=S(=O)(c1ccc2oc(Nc3cc(Cl)ccc3F)nc2c1)N1CCOCC1 | 28 | -3.83
82 | CC(c1nc2cc(Cl)ccc2[nH]1)N(C)CC(O)C(F)(F)F (stereo not given) | 3 | -0.3
83 | O=C(Nc1ccc(NC(=O)c2ccco2)cc1C(F)(F)F)Nc1ccc(NC(=O)c2ccco2)cc1C(F)(F)F | -5 | 0.71
84 | C[C@H](O)c1cccc(/C=C/C2CCCCC2)n1 | -5 | 1.09
85 | Cc1ccn2c(C3CCN(C(=O)c4scnc4C)CC3)nnc2c1 | 27 | -3.66
